Laboratory results from the supplement of paper PMC3334620.
The full ranking holds about 33,000 sequences; the median of “E-score (-0.5 to 0.5)” is about -0.043, and the highest 2% start at about 0.37. Some of the results follow.

The sequences below were run against T1, Upc2 (UniProt Q12151) (assay: PBM E-score (8-mer binding enrichment) (E-score (-0.5 to 0.5)); higher = stronger / more preferred TF binding; most listed sequences are background and not binding sites). Details: protein concentration: 200 nM; construct: GST-full length.
T1 sequence: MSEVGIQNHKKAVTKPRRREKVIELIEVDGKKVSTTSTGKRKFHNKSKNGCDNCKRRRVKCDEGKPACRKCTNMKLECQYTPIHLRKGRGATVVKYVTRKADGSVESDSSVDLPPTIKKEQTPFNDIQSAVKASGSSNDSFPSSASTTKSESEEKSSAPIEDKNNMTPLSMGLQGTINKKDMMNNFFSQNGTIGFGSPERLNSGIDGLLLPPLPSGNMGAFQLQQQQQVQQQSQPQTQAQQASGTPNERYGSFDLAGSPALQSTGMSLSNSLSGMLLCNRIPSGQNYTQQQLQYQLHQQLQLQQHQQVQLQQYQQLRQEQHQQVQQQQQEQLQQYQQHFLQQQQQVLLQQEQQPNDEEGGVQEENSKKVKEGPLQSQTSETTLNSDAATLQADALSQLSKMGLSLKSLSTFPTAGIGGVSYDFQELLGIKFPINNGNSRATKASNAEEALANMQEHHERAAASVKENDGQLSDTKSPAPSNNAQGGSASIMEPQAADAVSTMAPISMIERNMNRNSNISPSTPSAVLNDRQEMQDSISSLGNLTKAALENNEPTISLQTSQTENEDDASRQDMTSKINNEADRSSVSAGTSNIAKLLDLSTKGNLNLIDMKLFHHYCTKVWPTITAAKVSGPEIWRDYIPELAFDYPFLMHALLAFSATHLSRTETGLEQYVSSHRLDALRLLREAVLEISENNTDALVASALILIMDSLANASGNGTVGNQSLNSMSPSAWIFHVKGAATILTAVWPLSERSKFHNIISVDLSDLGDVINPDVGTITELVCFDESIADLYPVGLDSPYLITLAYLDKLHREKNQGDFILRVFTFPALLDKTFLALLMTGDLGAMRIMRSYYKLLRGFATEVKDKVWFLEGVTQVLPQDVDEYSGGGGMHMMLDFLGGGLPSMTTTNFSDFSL
In short: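 Bound GST-tagged yeast transcription factors, applied at about 100-200 nM to double-stranded universal all-10-mer Agilent arrays, were detected with fluorescent anti-GST. Scans were normalised with masliner. A modified Wilcoxon-Mann-Whitney statistic, the E-score, was assigned to each ungapped eight-base word pooled with its reverse complement by the Universal PBM Analysis Suite.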

Sequence | PBM E-score
AAGTGTGG | -0.25
AGTCCTCG | -0.00049
AGGCCTGC | -0.273
GGAGCGGA | 0.0233
CGGGAACG | 0.404
ACCCCGAG | -0.289
AACGCCTA | 0.0681
ACACACTC | -0.042
CATGAATA | -0.123
GTGAAACA | 0.0101
CCCCCAGG | -0.291
ATGATTTC | 0.0384
ATCCTGGA | -0.0858
GGTCCATA | -0.237
AGCCAGAC | -0.0311
GGCCTAGA | -0.258
AGGTAGTC | -0.175
ACTCTGAC | -0.106
CGTAAAAC | 0.389
CGACATTA | 0.178
GTAGCCTA | -0.0336
GTAGCGAC | -0.0629
GCATTGAA | 0.0862
CATCTTTC | -0.0518
ACACCCAT | 0.148

Sequence | PBM E-score
GCTAACGA | 0.304
AACTTACA | -0.0411
CATAAATG | -0.27
ACTCATCG | -0.074
GACAGGAC | -0.0481
CGTGTCCC | -0.0379
GGCCAGGA | -0.223
AAGTAAGA | -0.183
AAGGCACG | 0.0329
AAATGTCC | -0.0702
AATGGCGT | 0.039
AAATTCCC | -0.178
GCGCTACA | 0.00749
GGGGGATA | -0.161
GTCGTGTA | 0.308
AACCCACG | 0.00587
ATATAGAT | 0.216
AAAATGTG | -0.179
CCGTGATA | -0.127
GAGTGGAC | -0.0953
GCGATGAC | 0.177
AATCCACA | -0.135
CCGTCAAC | -0.103
AGGTTGGG | -0.0253
CACCCCAG | -0.161

Sequence | PBM E-score
TCACCCCA | -0.133
AATATCCA | -0.0466
AGTATGAC | 0.0571
CAGTTGCA | -0.0182
CATGTTAC | 0.0816
GTAGCAAA | 0.033
ATAGCTGA | -0.103
GATTTCCA | -0.112
AAACCAGG | 0.00031
ACCCTCAC | -0.244
GGAAGATA | 0.013
CGCACCTC | -0.0714
AAGCTAGA | -0.166
GTTAATGA | 0.135
CGACAGCC | 0.0974
AAGACATC | -0.298
CACGCAGG | -0.0978
TAGCGTCA | -0.0212
CAGCCCCG | 0.0051
CCATAGCC | -0.305
CCGGCCGA | -0.214
CACTCTTC | -0.0626
ATCGGCAT | 0.0274
GCGGCAAA | -0.153
AATCCCCC | -0.144

Sequence | PBM E-score
ATGTAATC | 0.0213
AATCGCTG | -0.0811
CGAATGTA | 0.195
CAGCAAGA | -0.0837
CGCCATTA | -0.0838
CTGCAAAC | 0.0943
AATGAAGC | -0.0566
CCCTGTCC | 0.00553
GACTTGAC | -0.266
CCGTCTTA | -0.0104
ACCGCTTA | 0.144
CTCCTAAA | -0.0262
CAATATTA | 0.232
TAGGAAAA | -0.305
AAGCTCGG | 0.0373
ATTGTTCC | 0.00512
AGGCGGAG | -0.075
AGTCGGCA | -0.0445
GCGCAGCC | -0.211
AGAGATTG | -0.0876
AGAGCTGA | -0.202
ATGCTTAG | -0.132
AAGAAGCT | -0.0485
TACCGAAA | 0.201
TACACAGA | -0.0979

Sequence | PBM E-score
CCTTACAC | 0.0063
AACAAGCG | 0.259
GACCATTA | -0.0333
ACTTACAC | -0.034
AGCGCCTG | 0.00494
CAATGTCG | 0.0532
AATGAGTC | -0.0524
CTTAGCGA | 0.271
GCGTTGCC | -0.132
CGAGCCGC | 0.252
ATCCTAAC | -0.0571
AGGTAAGG | -0.232
AGACTACT | 0.0886
ACAAATGA | -0.15
GGACGCCA | -0.232
GCCGACCA | -0.185
CATAGGGG | -0.184
CGCGTGAA | 0.199
ATGGTCAG | -0.0547
GAACTGGA | -0.0503
TATGAAAA | 0.109
AGGATTAA | -0.119
GATAGGCA | -0.0012
CAAACTCC | 0.0564
TGAGCTAA | -0.173

Sequence | PBM E-score
AGAGACAA | -0.152
AACATGGT | -0.111
GGAGCTAA | -0.00672
ACTCCTCC | -0.178
TCGAAAAA | 0.22
AGGCATGA | -0.264
AAACCGTC | -0.0199
TACTTCGA | 0.105
ACGTAAAC | 0.345
AATGCTAT | -0.0104
GGGCTAGA | -0.136
GGTTCCAA | -0.0574
ACAACTAG | -0.0657
AACAGCGC | 0.0168
AAGCCTCA | -0.228
TCTCCTAA | -0.00947
CAGCGCCC | -0.307
CTAATTGC | 0.0187
GTCGGCAA | 0.156
CCTGTTGC | -0.105
GGGTCTCA | -0.36
GGGATAAC | -0.0776
AATAGGCT | -0.0238
AAGACCCG | -0.107
CAAATGCC | -0.201

Sequence | PBM E-score
CCGAGCGA | 0.193
GAACTCCC | 0.129
GGGCCTCA | -0.145
GGAGCTTA | -0.0696
ACTTTATC | 0.016
AGCTGCAA | -0.26
ACCGACTA | 0.0499
CGATTTGA | 0.17
GACCCCGA | -0.131
GGGTGGAC | -0.204
CGCCGTTA | 0.251
GGTTCCCA | -0.0861
GGAATGAC | -0.254
ATAACCAC | 0.0671
GTCACGAC | -0.0899
CCCAACAG | -0.24
ATTGGAGC | -0.169
AAATCAGT | 0.0223
CAAACGCC | 0.141
CAGACGAC | 0.0855
ACGTTAGA | 0.0666
AAGTCACA | -0.153
GTGCCTTA | -0.146
AGTACCTC | -0.276
GTTTAACA | 0.246

Sequence | PBM E-score
GAACAGGA | -0.129
AGTGATAC | 0.153
ATGTCTAA | -0.133
CCTCCACA | -0.239
CAAGTTGC | 0.137
GATACGAC | 0.468
GGCTTCCC | -0.208
AGGTCGAT | 0.106
ACGTTCAT | 0.169
AAGAATCT | -0.148
GACACCCA | -0.229
GGGCCAGA | -0.184
ACTCTTAG | -0.149
GATCTCCA | -0.174
ATCCGCCA | -0.171
GATATCGA | 0.071
GAACCAAC | -0.0128
ATCGAATG | -0.143
CTATGTAA | -0.115
CGATCCAA | 0.0303
AGCACTAT | -0.0413
CACACTTA | -0.00527
GAGGAGTA | -0.0426
GCAACGTA | 0.172
AGTGGCTG | -0.132

Sequence | PBM E-score
AGGCCTGA | -0.17
AGTCTATC | -0.159
CCCTTAAG | 0.0123
GGTGAACC | 0.0141
CTCGTGGC | -0.233
CCCCGATA | -0.00163
CCTAAGTA | -0.0907
AACGGCCT | 0.19
AGTTAGAA | -0.207
CCGGTGTA | 0.0319
CTAAAAGA | 0.17
AATAACGC | -0.0432
ACAACATC | -0.134
TATATTGA | 0.001
ATCCGATC | 0.127
GCTTATCA | -0.18
ATATACCA | 0.0254
ATTAATGG | -0.0334
GCTGAGTA | -0.21
